Variants at the floor of the assay are shown more often than the library holds them.
B1: TPR 5TU (parent)
chain: GGAUCUUCUCGAUCUAACAAAAAAGACAAAUCUGCCACAAAGCUUGAGAGCAUCUUCGGAUGCAGAGGCGGCAGCCUUCGGUGGCGCGAUAGCGCCAACGUUCUCAACUAUGACACGCAAAACGCGUGCUCCGUUGAAUGGAGUUUAUCAUG

Variants of: B1
Assay: polymerase ribozyme fitness, log enrichment relative to wild type (log ratio); higher = more active; in vitro selection for triplet polymerase activity
Method in brief: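 In triplicate, a single round of in vitro selection was run on each mutant library, PCR-built and transcribed, covering one subunit of a heterodimeric triplet polymerase ribozyme. Frozen incubation at −7 °C followed annealing with a biotinylated primer, partner subunit and triplets, and extended constructs were then gel-excised, streptavidin-captured and taken through RT-PCR. Fitness is the logarithm of genotype enrichment over wild-type enrichment, from inverse-variance-weighted replicate averages of Illumina-sequenced inputs and outputs. […] only genotypes with ≥10 input reads and ≥1 read per output were kept.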
With U6A A23C G25C C27U A30U C51A A73G C87U G88C the “polymerase ribozyme fitness (log ratio)” value was at most -4.2. In the case of U6A A19C U56A G83A G124C, the “polymerase ribozyme fitness (log ratio)” value is reported as -1.45. For C5G G50U A107C A115G G124A G136A, the “polymerase ribozyme fitness (log ratio)” value was at most -4.2. With U6A U13A U61A C76A A91G the “polymerase ribozyme fitness (log ratio)” value was at most -4.2. With C5U A17C A26G G42U G84A U109C the “polymerase ribozyme fitness (log ratio)” value was at most -4.2. In the case of C5G G71A C76G C96U C103G C132U A137C, the “polymerase ribozyme fitness (log ratio)” value is reported as at most -4.2. For U6A A91C C114G, the “polymerase ribozyme fitness (log ratio)” value was at most -4.2. In the case of C5U A17G A49G U53G C85A A122C G141C, the “polymerase ribozyme fitness (log ratio)” value is reported as at most -4.2. In the case of C5G A52C G84A G100A A147G, the “polymerase ribozyme fitness (log ratio)” value is reported as at most -4.2. With C5G C10G C18U A29U C57U C93A U146G the “polymerase ribozyme fitness (log ratio)” value was at most -4.2. For C5G A49G C57U G59A G83U U102G, the “polymerase ribozyme fitness (log ratio)” value was at most -4.2. With C5G U9A A52C A73G C87G A110U the “polymerase ribozyme fitness (log ratio)” value was at most -4.2. With U6A A41C U45A A49G G59U G86A the “polymerase ribozyme fitness (log ratio)” value was at most -4.2. In the case of C5G C8U A28C U33A U44A C85U U90A U139C, the “polymerase ribozyme fitness (log ratio)” value is reported as at most -4.2. In the case of U6A A23C G68U G100U C131U G143U, the “polymerase ribozyme fitness (log ratio)” value is reported as at most -4.2. With C5G C54U A64C C96G A110G G112C G133U C149A the “polymerase ribozyme fitness (log ratio)” value was at most -4.2. In the case of C5U G34A A49C C57A C75U C93A C118G A122C C123A, the “polymerase ribozyme fitness (log ratio)” value is reported as at most -4.2. With U6A C57G A64G C76U C87A the “polymerase ribozyme fitness (log ratio)” value was at most -4.2. With C5U A49C U78G A97G G133A U135A U146C the “polymerase ribozyme fitness (log ratio)” value was at most -4.2. In the case of C5U A22G G80C G92A C103G C118G G136C A137U G143C A150U, the “polymerase ribozyme fitness (log ratio)” value is reported as at most -4.2. In the case of C5G G46A G58C A60U G92A C93U A120U A121U A138U, the “polymerase ribozyme fitness (log ratio)” value is reported as at most -4.2. For C5G C8A A24C C85G C95A A98U C108U, the “polymerase ribozyme fitness (log ratio)” value was at most -4.2. With C5U A16U C87A A106C the “polymerase ribozyme fitness (log ratio)” value was at most -4.2. With U6A A17C C18G A89G C96G G136C the “polymerase ribozyme fitness (log ratio)” value was at most -4.2. In the case of C5U G92A C114U, the “polymerase ribozyme fitness (log ratio)” value is reported as -3.86. With C5G U33G C79A G84A G88A C108A C116A G143U the “polymerase ribozyme fitness (log ratio)” value was at most -4.2. For C5U U77G G80C C96U, the “polymerase ribozyme fitness (log ratio)” value was at most -4.2. In the case of C5G A60U A119U G126U G141U, the “polymerase ribozyme fitness (log ratio)” value is reported as at most -4.2. In the case of U6A A47C G59U G81A C95G G141C, the “polymerase ribozyme fitness (log ratio)” value is reported as at most -4.2. For U6A A29C U44C G83U C87U A97G C149G, the “polymerase ribozyme fitness (log ratio)” value was at most -4.2. In the case of C5U G65U A91U A137U U146G, the “polymerase ribozyme fitness (log ratio)” value is reported as at most -4.2. For C5U G11U A24C C87A, the “polymerase ribozyme fitness (log ratio)” value was at most -4.2. With C5G U9A C93A U104A C118G C125U U135G G141C G152A the “polymerase ribozyme fitness (log ratio)” value was at most -4.2. With C5G U13A G50U A73U G84A U109G the “polymerase ribozyme fitness (log ratio)” value was at most -4.2. With C5U C54U U82A C95G A147U the “polymerase ribozyme fitness (log ratio)” value was -1.27. In the case of C5U C43A, the “polymerase ribozyme fitness (log ratio)” value is reported as at most -4.2. For U6A G68A G83C U90G C118U, the “polymerase ribozyme fitness (log ratio)” value was at most -4.2. In the case of C5G C8U A21U G50U C75A G94U C118A, the “polymerase ribozyme fitness (log ratio)” value is reported as at most -4.2. With U6A A26C A98U G136U the “polymerase ribozyme fitness (log ratio)” value was -4.09. In the case of C5G G58A A60G G88A C108U G126U, the “polymerase ribozyme fitness (log ratio)” value is reported as at most -4.2. For C5G U78G, the “polymerase ribozyme fitness (log ratio)” value was at most -4.2. With C5G C54A C93A A97U the “polymerase ribozyme fitness (log ratio)” value was at most -4.2. For C5G C35G U55G C95G C105U A137U, the “polymerase ribozyme fitness (log ratio)” value was at most -4.2. In the case of U6A A20C U31C C96A U127C, the “polymerase ribozyme fitness (log ratio)” value is reported as -1.86. With U6A A17U C18G A20C A22G C27U U56A C99A the “polymerase ribozyme fitness (log ratio)” value was at most -4.2. In the case of U6A A64G C72U A73G A91U, the “polymerase ribozyme fitness (log ratio)” value is reported as at most -4.2. In the case of U6A C14U A41U G48U, the “polymerase ribozyme fitness (log ratio)” value is reported as -3.87. For U6A G50C C54A C79U C116U G126A, the “polymerase ribozyme fitness (log ratio)” value was at most -4.2. For C5G G86A A110G U145A C149G, the “polymerase ribozyme fitness (log ratio)” value was at most -4.2. In the case of U6A A28U A52C G70C G86U U90G A106G A113G A138U U139C C149A, the “polymerase ribozyme fitness (log ratio)” value is reported as at most -4.2. In the case of C5U A47C G59A C87U C93U, the “polymerase ribozyme fitness (log ratio)” value is reported as -3.16. For C5U A21U A40U C57U C76A G83U C116A, the “polymerase ribozyme fitness (log ratio)” value was at most -4.2. In the case of C5U C27G G58C G80A C87U C99U G100A C116G U134G A147G, the “polymerase ribozyme fitness (log ratio)” value is reported as at most -4.2. With U6A A21U C76A G86U the “polymerase ribozyme fitness (log ratio)” value was -2.79. In the case of C5G G34A C38U C43U G83A, the “polymerase ribozyme fitness (log ratio)” value is reported as at most -4.2. With C5G C38U U45A C103A G128A the “polymerase ribozyme fitness (log ratio)” value was at most -4.2. In the case of C5U C8A A26U A39G, the “polymerase ribozyme fitness (log ratio)” value is reported as at most -4.2. With U6A the “polymerase ribozyme fitness (log ratio)” value was 0.197. In the case of C5G U6A C32G U77A C87G C114U, the “polymerase ribozyme fitness (log ratio)” value is reported as at most -4.2. For C5U A21G G59C C93G, the “polymerase ribozyme fitness (log ratio)” value was -1.3. With C5U A17G G25C C43G C57U A60G C87U G88A C118G the “polymerase ribozyme fitness (log ratio)” value was at most -4.2. With C5G U77A G94U G140C G152A the “polymerase ribozyme fitness (log ratio)” value was at most -4.2. With C5G C32U G50C C96A C99U U127A the “polymerase ribozyme fitness (log ratio)” value was at most -4.2. In the case of C5U U55G U145C U146A U151G, the “polymerase ribozyme fitness (log ratio)” value is reported as at most -4.2. For C5G G25C C54A C75G G83U, the “polymerase ribozyme fitness (log ratio)” value was at most -4.2. For C5G U6G G46C G50C U56A C57A G86A A98U U139G G141A, the “polymerase ribozyme fitness (log ratio)” value was at most -4.2. For C5G U6C A26U A66G G86U C87A G88C A137C G141A U144A, the “polymerase ribozyme fitness (log ratio)” value was at most -4.2. For C5G C32U G84U, the “polymerase ribozyme fitness (log ratio)” value was -3.82. For C5G A66G G71A C85U C87G C125G, the “polymerase ribozyme fitness (log ratio)” value was at most -4.2. With U6A A106G G117C A147U the “polymerase ribozyme fitness (log ratio)” value was -0.278. With U6A C85U G140C the “polymerase ribozyme fitness (log ratio)” value was -3.99. For C5G U15G A20G C76G A91C C99G U148G, the “polymerase ribozyme fitness (log ratio)” value was at most -4.2. In the case of U6A A22U A37U C51A U55A C79A G92C A107G A115U A142G, the “polymerase ribozyme fitness (log ratio)” value is reported as at most -4.2. For U6A G11U A23C G25A C36A G50C C125U, the “polymerase ribozyme fitness (log ratio)” value was at most -4.2. For U6A A26U A29G G67C U90A, the “polymerase ribozyme fitness (log ratio)” value was at most -4.2. In the case of C5G U56A G84U U144A, the “polymerase ribozyme fitness (log ratio)” value is reported as -3.4. With C5G G25C A40C G83A A91C A122G the “polymerase ribozyme fitness (log ratio)” value was at most -4.2. In the case of U6A C14U G59A G86C C93G G94U U109C, the “polymerase ribozyme fitness (log ratio)” value is reported as at most -4.2. In the case of U6A C93U, the “polymerase ribozyme fitness (log ratio)” value is reported as -1.6. For C5G C10G A28U U33G C79U, the “polymerase ribozyme fitness (log ratio)” value was at most -4.2. For U6A A16G C36A G68C U78A C85G A89U, the “polymerase ribozyme fitness (log ratio)” value was at most -4.2. In the case of C5U C87U G94C, the “polymerase ribozyme fitness (log ratio)” value is reported as -2.15. For U6A C10A U31A A49C U53A C76G G81A G92A A106G G117A, the “polymerase ribozyme fitness (log ratio)” value was at most -4.2. In the case of C5U G84A A150C, the “polymerase ribozyme fitness (log ratio)” value is reported as at most -4.2.

Source: the RNAGym collection of RNA variant scans (doi:10.1073/pnas.2313332121)
